# Results from paper PMC12136788.
# The other results are listed elsewhere or left out.
# T1: UNK ZnF1-3 (human, UniProt Q9C0B0 31-174)
# T1 sequence: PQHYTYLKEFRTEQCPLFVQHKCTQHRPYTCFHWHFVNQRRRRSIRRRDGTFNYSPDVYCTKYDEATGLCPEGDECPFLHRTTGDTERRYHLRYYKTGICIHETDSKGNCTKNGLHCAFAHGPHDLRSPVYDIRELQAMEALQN
# B1: chr6:41757443:41757444:+_ENSG00000214736_ENST00000398881|hu_mus|hu_hu_hu_mus_False|18_38 (ssRNA)
# RNA: GGGAGUUCUACAGUCCGACGAUCGAACCGUGCAGAGGCAACAUCUCAGCCGACACUGGGGGAUGGGGGGGCAGUGGGGGGGGGUUCAGGCAAGGAGAAGAAAAGUGCUUCAGCUGCUCAAACUUCAGGAUCUUGUGGUCACAGCAACAGAGGAUUGAGCAUCA
# B2: chr2:32088997:32088998:+_ENSMUSG00000039262_ENSMUST00000036691|mus_mus|motif|central (ssRNA)
# RNA: GGGAGUUCUACAGUCCGACGAUCUCCCCCUUAAGGAAGCUUAGACCCAGAAGUGUUCUGUGAACUCUGAAUUUGAAAAUGCGGAACUUGGGAAUCAGACAAGGAAAGCAACUGUUAAGAGACCAGACUAAAUGCAGUCGGCAGCAACAGAGGAUUGAGCAUCA
# B3: chrX:102931600:102931601:-_ENSG00000123562_ENST00000441076|hu_hu|motif|central (ssRNA)
# RNA: GGGAGUUCUACAGUCCGACGAUCGUCCUCAACAAGCCAUGGUUUUAAUUCUUCAGGAAUCUUCACUUUAACCUCCAUUCGGUUCUUAAACGCCUCCUCACUUUCAACAGUGGGGUCUGCCCGGGCCCUUUUCUUCCGAGGGGGCAACAGAGGAUUGAGCAUCA
# B4: chr4:99962207:99962208:+_ENSG00000164024_ENST00000296411|hu_hu|motif|central (ssRNA)
# RNA: GGGAGUUCUACAGUCCGACGAUCGCCGGCAGCAACAUCCAAAACUUCUCUAGCAAGCCUACAUACAAGUCGCAUCCCUUCGGUAUCUUCAGAUGAGAGUAAUUUAAUCUGAGAAGUACCUUUAAGAGCCUGUUCAGAUUCAGACAACAGAGGAUUGAGCAUCA
# B5: chr10:1038518:1038519:+_ENSG00000107937_ENST00000545048|hu_hu|hu_hu_hu_mus_False|48_48 (ssRNA)
# RNA: GGGAGUUCUACAGUCCGACGAUCCAGUCUGUCAUGGUAAUUCUGUUGAGUAAAUUUGACUUUUCUCAUAUAAAAAUGUCGAAUCCGAUGUAUUUGGUAAUGUUUAUGAAUAACCGUUGGAGUCUUUCGUUGAGUCUUGGAUAACAACAGAGGAUUGAGCAUCA
# B6: chr6:114281168:114281169:-_ENSG00000196591_ENST00000368632|hu_hu|hu_hu_hu_mus_True|8_88 (ssRNA)
# RNA: GGGAGUUCUACAGUCCGACGAUCUUCCAUUUUUCGGUAUAAACCAUAAUUUAACAGCAAGUUAUGAGUCAUCCGGAUUCUAUGAGGCUUCAUGGGAUGACCCUGGCCAUAAUAAUAAUUGCCAAUAUCACAGAUUCAGUAGUACAACAGAGGAUUGAGCAUCA
# Biological target: T1, UNK ZnF1-3
# Test: nsRBNS (natural sequence RNA bind-n-seq); RBNS binding buffer (assumed for nsRBNS): 25 mM Tris pH 7.5, 150 mM KCl, 3 mM MgCl2, 0.01% Triton X-100, 500 ug/ml BSA, 20 U/ml SUPERase-In, 4 C; UNK is unkempt and MSI1 is Musashi-1; names of the RNAs are library labels; protein concentration not given here; high values mean tight binding
row,Binder,binding signal
1,B1,1.37 enrichment R
2,B2,1.6 enrichment R
3,B3,1.13 enrichment R
4,B4,1.93 enrichment R
5,B5,0.525 enrichment R
6,B6,0.908 enrichment R
